Some of the results follow. Sequences were assembled here from the parent chain. Inactive controls read about 0.05.
B1: TEV protease; numbered along this chain (parent)
chain: MGESLFKGPRDYNPISSSICHLTNESDGHTTSLYGIGFGPFIITNKHLFRRNNGTLVVQSLHGVFKVKDTTTLQQHLVDGRDMIIIRMPKDFPPFPQKLKFREPQREERICLVTTNFQTKSMSSMVSDTSCTFPSGDGIFWKHWIQTKDGQCGSPLVSTRDGFIVGIHSASNFTNTNNYFTSVPKNFMELLTNQEAQQWVSGWRLNADSVLWGGHKVFMVKPEEPFQPVKEATQL

Variants of: B1
Experiment: raw area under fraction-flipped curve 0-4 h after induction (AUC4h, not background-subtracted), DNA-recorder readout of cleavage of the substrate (dimensionless); higher = more cleavage of the substrate by the protease variant
Conditions: temperature: 34 °C; time window: 0-4 h after rhamnose induction
Procedure: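 In vivo DNA recorder in E. coli TOP10(DE3) ΔrhaA at 34 °C. Each TEVp single-site mutant (parent TEVp 0) is paired with a single-site variant of the 7-mer TEVs (canonical ENLYFQ|S). The substrate sits between flexible linkers in a Bxb1-sfGFP-TEVs-SsrA fusion, so cleavage stabilises Bxb1 and speeds flipping of a recombination array, read by NGS. The value is the raw area under the fraction-flipped curve over 0-4 h after rhamnose induction (AUC4h), with ≥20 reads per time point. It is not background-subtracted; inactive controls average about 0.047.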
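Note: Bxb1 expression induced with 0.2% (w/v) L-rhamnose at OD600 near 0.5, cultures sampled hourly, flipped fraction per protease–substrate barcode pair counted by paired-end Illumina sequencing.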

Row | Variant | area with substrate EALYFQS | area with substrate ECLYFQS | area with substrate EILYFQS | area with substrate EKLYFQS | area with substrate ELLYFQS | area with substrate EQLYFQS | area with substrate ERLYFQS | area with substrate ESLYFQS | area with substrate EVLYFQS | area with substrate EWLYFQS | area with substrate EYLYFQS | area with substrate EELYFQS | area with substrate EMLYFQS | area with substrate EPLYFQS | area with substrate EDLYFQS | area with substrate EGLYFQS | area with substrate EHLYFQS | area with substrate ETLYFQS | area with substrate EFLYFQS
1 | MGESLFKGPRDYNPISSSICHLTNESDGHTTSLYGIGFGPFIITNKHLFRRNNGTLVVQSLHGVFKVKDTTTLQQHLVDGRDMIIIRMPKDFPPFPQKLKFREPQSEERICLVTTNFQTKSMSSMVSDTSCTFPSGDGIFWKHWIQTKDGQCGSPLVSTRDGFIVGIHSASNFTNTNNYFTSVPKNFMELLTNQEAQQWVSGWRLNADSVLWGGHKVFMVKPEEPFQPVKEATQL [R106S] | 0.148 | 0.0949 | 0.098 | 0.111 | 0.115 | 0.112 | 0.0708 | 0.0984 | 0.11 | 0.0856 | 0.0953 | – | – | – | – | – | – | – | –
2 | MGESLFKGPRDYNPISSSICHLTNESDGHTTSLYGIGFGPFIITNKHLFRRNNGTLVVQSLHGVFKVKDTTTLQQHLVDGRDMIIIRMPKDFPPFPQKLKFREPQREERICLVTTLFQTKSMSSMVSDTSCTFPSGDGIFWKHWIQTKDGQCGSPLVSTRDGFIVGIHSASNFTNTNNYFTSVPKNFMELLTNQEAQQWVSGWRLNADSVLWGGHKVFMVKPEEPFQPVKEATQL [N116L] | 0.125 | 0.0919 | – | – | – | 0.0635 | – | 0.123 | 0.0727 | – | – | 0.0975 | 0.0937 | – | – | – | – | – | –
3 | MGESLFKGPRDYNPISSSICHLTNESDGHTTSLYGIGFGPFIITNKHLFRRNNGTLVVQSLHGVFKVKDTTTLQQHLVDGRDMIIIRMPKDFPPFPQKLKFREPQREERICLVTTPFQTKSMSSMVSDTSCTFPSGDGIFWKHWIQTKDGQCGSPLVSTRDGFIVGIHSASNFTNTNNYFTSVPKNFMELLTNQEAQQWVSGWRLNADSVLWGGHKVFMVKPEEPFQPVKEATQL [N116P] | 0.121 | 0.0827 | 0.0866 | 0.0981 | – | 0.109 | 0.137 | 0.0988 | 0.103 | – | – | – | 0.116 | 0.117 | – | – | – | – | –
4 | MGESLFKGPRDYNPISSSICHLTNESDGHTTSLYGIGFGPFIITNKHLFRRNNGTLVVQSLHGVFKVKDTTTLQQHLVDGRDMIIIRMPKDFPPFPQKLKFREPQREERICLVTTYFQTKSMSSMVSDTSCTFPSGDGIFWKHWIQTKDGQCGSPLVSTRDGFIVGIHSASNFTNTNNYFTSVPKNFMELLTNQEAQQWVSGWRLNADSVLWGGHKVFMVKPEEPFQPVKEATQL [N116Y] | 0.117 | 0.0779 | 0.0911 | – | – | 0.15 | 0.0856 | 0.0963 | – | – | – | – | 0.124 | 0.0974 | 0.106 | 0.106 | – | – | –
5 | MGESLFKGPRDYNPISSSICHLTNESDGHTTSLYGIGFGPFIITNKHLFRRNNGTLVVQSLHGVFKVKDTTTLQQHLVDGRDMIIIRMPKDFPPFPQKLKFREPQREERICLVTTNEQTKSMSSMVSDTSCTFPSGDGIFWKHWIQTKDGQCGSPLVSTRDGFIVGIHSASNFTNTNNYFTSVPKNFMELLTNQEAQQWVSGWRLNADSVLWGGHKVFMVKPEEPFQPVKEATQL [F117E] | 0.148 | 0.108 | – | 0.103 | 0.0779 | 0.112 | 0.0914 | 0.101 | – | – | 0.0887 | 0.146 | – | – | – | 0.0894 | 0.104 | 0.094 | –
6 | MGESLFKGPRDYNPISSSICHLTNESDGHTTSLYGIGFGPFIITNKHLFRRNNGTLVVQSLHGVFKVKDTTTLQQHLVDGRDMIIIRMPKDFPPFPQKLKFREPQREERICLVTTNFYTKSMSSMVSDTSCTFPSGDGIFWKHWIQTKDGQCGSPLVSTRDGFIVGIHSASNFTNTNNYFTSVPKNFMELLTNQEAQQWVSGWRLNADSVLWGGHKVFMVKPEEPFQPVKEATQL [Q118Y] | 0.124 | 0.108 | 0.0687 | 0.125 | – | 0.111 | – | 0.116 | 0.0935 | – | – | 0.0891 | 0.115 | – | – | 0.0898 | – | – | –
7 | MGESLFKGPRDYNPISSSICHLTNESDGHTTSLYGIGFGPFIITNKHLFRRNNGTLVVQSLHGVFKVKDTTTLQQHLVDGRDMIIIRMPKDFPPFPQKLKFREPQREELICLVTTNFQTKSMSSMVSDTSCTFPSGDGIFWKHWIQTKDGQCGSPLVSTRDGFIVGIHSASNFTNTNNYFTSVPKNFMELLTNQEAQQWVSGWRLNADSVLWGGHKVFMVKPEEPFQPVKEATQL [R109L] | 0.122 | – | 0.112 | 0.0985 | – | 0.124 | 0.106 | – | 0.124 | – | 0.0933 | 0.117 | 0.113 | 0.121 | 0.117 | – | – | 0.093 | –
8 | MGESLFKGPRDYNPISSSICHLTNESDGHTTSLYGIGFGPFIITNKHLFRRNNGTLVVQSLHGVFKVKDTTTLQQHLVDGRDMIIIRMPKDFPPFPQKLKFREPQREERICLVTTNFQTKIMSSMVSDTSCTFPSGDGIFWKHWIQTKDGQCGSPLVSTRDGFIVGIHSASNFTNTNNYFTSVPKNFMELLTNQEAQQWVSGWRLNADSVLWGGHKVFMVKPEEPFQPVKEATQL [S121I] | 0.103 | 0.113 | 0.0936 | 0.0971 | 0.0916 | 0.112 | 0.101 | 0.0925 | 0.0893 | 0.044 | – | 0.115 | 0.0919 | – | – | 0.0817 | – | 0.0978 | 0.0976
9 | MGESLFKGPRDYNPISSSICHLTNESDGHTTSLYGIGFGPFIITNKHLFRRNNGTLVVQSLHGVFKVKDTTTLQQHLVDGRDMIIIRMPKDFPPFPQKLKFREPQREERIHLVTTNFQTKSMSSMVSDTSCTFPSGDGIFWKHWIQTKDGQCGSPLVSTRDGFIVGIHSASNFTNTNNYFTSVPKNFMELLTNQEAQQWVSGWRLNADSVLWGGHKVFMVKPEEPFQPVKEATQL [C111H] | 0.0799 | – | 0.0983 | – | – | 0.111 | – | 0.12 | 0.11 | 0.0888 | 0.104 | 0.114 | 0.144 | – | – | – | – | 0.106 | –
10 | MGESLFKGPRDYNPISSSICHLTNESDGHTTSLYGIGFGPFIITNKHLFRRNNGTLVVQSLHGVFKVKDTTTLQQHLVDGRDMIIIRMPKDFPPFPQKLKFREPQREERIDLVTTNFQTKSMSSMVSDTSCTFPSGDGIFWKHWIQTKDGQCGSPLVSTRDGFIVGIHSASNFTNTNNYFTSVPKNFMELLTNQEAQQWVSGWRLNADSVLWGGHKVFMVKPEEPFQPVKEATQL [C111D] | 0.0735 | 0.0584 | 0.0542 | 0.0522 | – | – | – | 0.063 | 0.0608 | 0.0548 | 0.0851 | 0.0688 | 0.063 | – | – | 0.0693 | 0.0591 | 0.0682 | 0.0785
